This is one part of the list.
What was measured:
Experiment in all cases: glycan array binding signal (z-score within array); higher = stronger binding
Settings in all cases: glycan notation: IUPAC condensed, linker removed
[1] = molecular target: GlcNAc(b1-3)Gal(b1-3)GalNAc
Procedure, shortened: (§1)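 From the Consortium for Functional Glycomics database, 3228 arrays were curated, keeping only those whose protein sequence was available. Binding is given as a within-array Z-score averaged across arrays sharing a protein sequence and across linkers. Negative Z-scores can be read as non-binding.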

GlcNAc(b1-3)Gal(b1-4)Glc = molecular target: GlcNAc(b1-3)Gal(b1-4)Glc
Procedure, shortened: as §1

[2] = molecular target: GlcNAc(b1-3)Gal(b1-4)GlcNAc
Procedure, shortened: as §1

[3] = molecular target: GlcNAc(b1-3)Gal(b1-4)GlcNAc(b1-2)Man(a1-3)[GlcNAc(b1-3)Gal(b1-4)GlcNAc(b1-2)Man(a1-6)]Man(b1-4)GlcNAc(b1-4)GlcNAc
Procedure, shortened: as §1

[4] = molecular target: GlcNAc(b1-3)Gal(b1-4)GlcNAc(b1-2)Man(a1-3)[GlcNAc(b1-3)Gal(b1-4)GlcNAc(b1-2)Man(a1-6)]Man(b1-4)GlcNAc(b1-4)[Fuc(a1-6)]GlcNAc
Procedure, shortened: as §1

[5] = molecular target: GlcNAc(b1-3)Gal(b1-4)GlcNAc(b1-2)[GlcNAc(b1-3)Gal(b1-4)GlcNAc(b1-6)]Man(a1-6)[GlcNAc(b1-3)Gal(b1-4)GlcNAc(b1-2)Man(a1-3)]Man(b1-4)GlcNAc(b1-4)GlcNAc
Procedure, shortened: as §1

[6] = molecular target: GlcNAc(b1-3)Gal(b1-4)GlcNAc(b1-3)Gal(b1-4)GlcNAc
Procedure, shortened: as §1

[7] = molecular target: GlcNAc(b1-3)Gal(b1-4)GlcNAc(b1-3)Gal(b1-4)GlcNAc(b1-2)Man(a1-3)[GlcNAc(b1-3)Gal(b1-4)GlcNAc(b1-3)Gal(b1-4)GlcNAc(b1-2)Man(a1-6)]Man(b1-4)GlcNAc(b1-4)GlcNAc
Procedure, shortened: as §1

[8] = molecular target: GlcNAc(b1-3)Gal(b1-4)GlcNAc(b1-3)Gal(b1-4)GlcNAc(b1-2)Man(a1-3)[GlcNAc(b1-3)Gal(b1-4)GlcNAc(b1-3)Gal(b1-4)GlcNAc(b1-2)Man(a1-6)]Man(b1-4)GlcNAc(b1-4)[Fuc(a1-6)]GlcNAc
Procedure, shortened: as §1

[9] = molecular target: GlcNAc(b1-3)Gal(b1-4)GlcNAc(b1-3)Gal(b1-4)GlcNAc(b1-2)[GlcNAc(b1-3)Gal(b1-4)GlcNAc(b1-3)Gal(b1-4)GlcNAc(b1-6)]Man(a1-6)[GlcNAc(b1-3)Gal(b1-4)GlcNAc(b1-3)Gal(b1-4)GlcNAc(b1-2)Man(a1-3)]Man(b1-4)GlcNAc(b1-4)[Fuc(a1-6)]GlcNAc
Procedure, shortened: as §1

[10] = molecular target: GlcNAc(b1-3)Gal(b1-4)GlcNAc(b1-3)Gal(b1-4)GlcNAc(b1-3)Gal(b1-4)GlcNAc(b1-2)Man(a1-3)[GlcNAc(b1-3)Gal(b1-4)GlcNAc(b1-3)Gal(b1-4)GlcNAc(b1-3)Gal(b1-4)GlcNAc(b1-2)Man(a1-6)]Man(b1-4)GlcNAc(b1-4)GlcNAc
Procedure, shortened: as §1

[11] = molecular target: GlcNAc(b1-3)Gal(b1-4)GlcNAc(b1-3)Gal(b1-4)GlcNAc(b1-3)Gal(b1-4)GlcNAc(b1-2)Man(a1-3)[GlcNAc(b1-3)Gal(b1-4)GlcNAc(b1-3)Gal(b1-4)GlcNAc(b1-3)Gal(b1-4)GlcNAc(b1-2)Man(a1-6)]Man(b1-4)GlcNAc(b1-4)[Fuc(a1-6)]GlcNAc
Procedure, shortened: as §1

[12] = molecular target: GlcNAc(b1-3)Gal(b1-4)GlcNAc(b1-3)Gal(b1-4)GlcNAc(b1-3)Gal(b1-4)GlcNAc(b1-2)[GlcNAc(b1-3)Gal(b1-4)GlcNAc(b1-3)Gal(b1-4)GlcNAc(b1-3)Gal(b1-4)GlcNAc(b1-6)]Man(a1-6)[GlcNAc(b1-3)Gal(b1-4)GlcNAc(b1-3)Gal(b1-4)GlcNAc(b1-3)Gal(b1-4)GlcNAc(b1-2)Man(a1-3)]Man(b1-4)GlcNAc(b1-4)[Fuc(a1-6)]GlcNAc
Procedure, shortened: as §1

[13] = molecular target: GlcNAc(b1-3)Gal(b1-4)GlcNAc(b1-3)Gal(b1-4)GlcNAc(b1-3)Gal(b1-4)GlcNAc(b1-3)Gal(b1-4)GlcNAc(b1-2)Man(a1-3)[GlcNAc(b1-3)Gal(b1-4)GlcNAc(b1-3)Gal(b1-4)GlcNAc(b1-3)Gal(b1-4)GlcNAc(b1-3)Gal(b1-4)GlcNAc(b1-2)Man(a1-6)]Man(b1-4)GlcNAc(b1-4)GlcNAc
Procedure, shortened: as §1

[14] = molecular target: GlcNAc(b1-3)Gal(b1-4)GlcNAc(b1-3)Gal(b1-4)GlcNAc(b1-3)Gal(b1-4)GlcNAc(b1-3)Gal(b1-4)GlcNAc(b1-2)Man(a1-3)[GlcNAc(b1-3)Gal(b1-4)GlcNAc(b1-3)Gal(b1-4)GlcNAc(b1-3)Gal(b1-4)GlcNAc(b1-3)Gal(b1-4)GlcNAc(b1-2)Man(a1-6)]Man(b1-4)GlcNAc(b1-4)[Fuc(a1-6)]GlcNAc
Procedure, shortened: as §1

[15] = molecular target: GlcNAc(b1-3)Gal(b1-4)GlcNAc(b1-3)Gal(b1-4)GlcNAc(b1-3)Gal(b1-4)GlcNAc(b1-3)Gal(b1-4)GlcNAc(b1-2)[GlcNAc(b1-3)Gal(b1-4)GlcNAc(b1-3)Gal(b1-4)GlcNAc(b1-3)Gal(b1-4)GlcNAc(b1-3)Gal(b1-4)GlcNAc(b1-6)]Man(a1-6)[GlcNAc(b1-3)Gal(b1-4)GlcNAc(b1-3)Gal(b1-4)GlcNAc(b1-3)Gal(b1-4)GlcNAc(b1-3)Gal(b1-4)GlcNAc(b1-2)Man(a1-3)]Man(b1-4)GlcNAc(b1-4)[Fuc(a1-6)]GlcNAc
Procedure, shortened: as §1

[16] = molecular target: GlcNAc(b1-3)Gal(b1-4)GlcNAc(b1-3)Gal(b1-4)GlcNAc(b1-3)GalNAc
Procedure, shortened: as §1

[17] = molecular target: GlcNAc(b1-3)Gal(b1-4)GlcNAc(b1-3)GalNAc
Procedure, shortened: as §1

[18] = molecular target: GlcNAc(b1-3)Gal(b1-4)GlcNAc(b1-3)[GlcNAc(b1-3)Gal(b1-4)GlcNAc(b1-3)]GalNAc
Procedure, shortened: as §1

[19] = molecular target: GlcNAc(b1-3)Gal(b1-4)GlcNAc(b1-6)[Gal(b1-3)]GalNAc
Procedure, shortened: as §1

[20] = molecular target: GlcNAc(b1-3)Gal(b1-4)GlcNAc(b1-6)[GlcNAc(b1-3)Gal(b1-3)]GalNAc
Procedure, shortened: as §1

[21] = molecular target: GlcNAc(b1-3)Gal(b1-4)GlcNAc(b1-6)[GlcNAc(b1-3)]Gal(b1-4)GlcNAc
Procedure, shortened: as §1

GlcNAc(b1-3)GalNAc = molecular target: GlcNAc(b1-3)GalNAc
Procedure, shortened: as §1

GlcNAc(b1-3)Man = molecular target: GlcNAc(b1-3)Man
Procedure, shortened: as §1

[22] = molecular target: GlcNAc(b1-3)[GlcNAc(b1-4)][GlcNAc(b1-6)]GlcNAc
Procedure, shortened: as §1

[23] = molecular target: GlcNAc(b1-3)[GlcNAc(b1-6)]Gal(b1-4)GlcNAc
Procedure, shortened: as §1

[24] = molecular target: GlcNAc(b1-3)[GlcNAc(b1-6)]GalNAc
Procedure, shortened: as §1

[25] = molecular target: GlcNAc(b1-4)Gal(b1-4)GlcNAc
Procedure, shortened: as §1

GlcNAc(b1-4)GlcNAc = molecular target: GlcNAc(b1-4)GlcNAc
Procedure, shortened: as §1

[26] = molecular target: GlcNAc(b1-4)GlcNAc(b1-4)GlcNAc
Procedure, shortened: as §1

[27] = molecular target: GlcNAc(b1-4)GlcNAc(b1-4)GlcNAc(b1-4)GlcNAc(b1-4)GlcNAc
Procedure, shortened: as §1

[28] = molecular target: GlcNAc(b1-4)GlcNAc(b1-4)GlcNAc(b1-4)GlcNAc(b1-4)GlcNAc(b1-4)GlcNAc
Procedure, shortened: as §1

[29] = molecular target: GlcNAc(b1-4)[GlcNAc(b1-6)]GalNAc
Procedure, shortened: as §1

[30] = molecular target: GlcNAc(b1-6)Gal(b1-4)GlcNAc
Procedure, shortened: as §1

GlcNAc(b1-6)GalNAc = molecular target: GlcNAc(b1-6)GalNAc
Procedure, shortened: as §1

[31] = molecular target: GlcNAc6S(b1-3)Gal(b1-4)GlcNAc
Procedure, shortened: as §1

Kdn(a2-3)Gal(b1-3)GalNAc = molecular target: Kdn(a2-3)Gal(b1-3)GalNAc
Procedure, shortened: as §1

Kdn(a2-3)Gal(b1-3)GlcNAc = molecular target: Kdn(a2-3)Gal(b1-3)GlcNAc
Procedure, shortened: as §1

Kdn(a2-3)Gal(b1-4)Glc = molecular target: Kdn(a2-3)Gal(b1-4)Glc
Procedure, shortened: as §1

Kdn(a2-3)Gal(b1-4)GlcNAc = molecular target: Kdn(a2-3)Gal(b1-4)GlcNAc
Procedure, shortened: as §1

[32] = molecular target: Kdn(a2-3)Gal(b1-4)[Fuc(a1-3)]GlcNAc
Procedure, shortened: as §1

Kdn(a2-6)Gal(b1-4)GlcNAc = molecular target: Kdn(a2-6)Gal(b1-4)GlcNAc
Procedure, shortened: as §1

[33] = molecular target: Man(a1-2)Man(a1-2)Man(a1-3)Man
Procedure, shortened: as §1

[34] = molecular target: Man(a1-2)Man(a1-2)Man(a1-6)[Man(a1-3)]Man
Procedure, shortened: as §1

Man(a1-2)Man(a1-3)Man = molecular target: Man(a1-2)Man(a1-3)Man
Procedure, shortened: as §1

B1: DC-ASGPR S+GEE (Homo sapiens) (protein)
chain: MTRTYENFQYLENKVKVQGFKNGPLPLQSLLQRLRSGPCHLLLSLGLGLLLLVIICVVGFQNSKFQRDLVTLRTDFSNFTSNTVAEIQALTSQGSSLEETIASLKAEVEGFKQERQAVHSEMLLRVQQLVQDLKKLTCQVATINNNGEEASTEGTCCPVNWVEHQDSCYWFSHSGMSWAEAEKYCQLKNAHLVVINSREEQNFVQKYLGSAYTWMGLSDPEGAWKWVDGTDYATGFQNWKPGQPDDWQGHGLGGGEDCAHFHPDGRWNDDVCQRPYHWVCEAGLGQTSQESH
glycan array binding signal (z-score) [1]: -0.318
glycan array binding signal (z-score) (GlcNAc(b1-3)Gal(b1-4)Glc): -0.302
glycan array binding signal (z-score) [2]: -0.326
glycan array binding signal (z-score) [3]: -0.336
glycan array binding signal (z-score) [4]: -0.254
glycan array binding signal (z-score) [5]: -0.08
glycan array binding signal (z-score) [6]: -0.288
glycan array binding signal (z-score) [7]: -0.304
glycan array binding signal (z-score) [8]: -0.248
glycan array binding signal (z-score) [9]: -0.113
glycan array binding signal (z-score) [10]: -0.276
glycan array binding signal (z-score) [11]: -0.192
glycan array binding signal (z-score) [12]: -0.176
glycan array binding signal (z-score) [13]: -0.159
glycan array binding signal (z-score) [14]: 0.044
glycan array binding signal (z-score) [15]: -0.234
glycan array binding signal (z-score) [16]: -0.297
glycan array binding signal (z-score) [17]: -0.533
glycan array binding signal (z-score) [18]: -0.484
glycan array binding signal (z-score) [19]: 0.056
glycan array binding signal (z-score) [20]: -0.32
glycan array binding signal (z-score) [21]: -0.301
glycan array binding signal (z-score) (GlcNAc(b1-3)GalNAc): -0.312
glycan array binding signal (z-score) (GlcNAc(b1-3)Man): -0.36
glycan array binding signal (z-score) [22]: -0.332
glycan array binding signal (z-score) [23]: -0.307
glycan array binding signal (z-score) [24]: -0.291
glycan array binding signal (z-score) [25]: -0.338
glycan array binding signal (z-score) (GlcNAc(b1-4)GlcNAc): -0.284
glycan array binding signal (z-score) [26]: -0.357
glycan array binding signal (z-score) [27]: -0.341
glycan array binding signal (z-score) [28]: -0.22
glycan array binding signal (z-score) [29]: -0.287
glycan array binding signal (z-score) [30]: -0.326
glycan array binding signal (z-score) (GlcNAc(b1-6)GalNAc): 3.74
glycan array binding signal (z-score) [31]: -0.351
glycan array binding signal (z-score) (Kdn(a2-3)Gal(b1-3)GalNAc): -0.289
glycan array binding signal (z-score) (Kdn(a2-3)Gal(b1-3)GlcNAc): -0.257
glycan array binding signal (z-score) (Kdn(a2-3)Gal(b1-4)Glc): -0.189
glycan array binding signal (z-score) (Kdn(a2-3)Gal(b1-4)GlcNAc): -0.485
glycan array binding signal (z-score) [32]: -0.345
glycan array binding signal (z-score) (Kdn(a2-6)Gal(b1-4)GlcNAc): -0.333
glycan array binding signal (z-score) [33]: -0.347
glycan array binding signal (z-score) [34]: -0.355
glycan array binding signal (z-score) (Man(a1-2)Man(a1-3)Man): -0.333

Source: the supplement of paper PMC8728848
